# Measurements: PubChem BioAssay (NCI)
#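 Five compound concentrations were applied to cells in 96-well plates for 48 hours; endpoints were derived by simple linear interpolation of the resulting dose-response curve. GI50: concentration for 50% inhibition of growth. TGI: total growth inhibition.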
# System: NCI-H322M lung
# Test: inhibition of tumour cell growth, NCI panel, 48 h
SMILES,GI50,TGI
COc1ccc2c(c1)c(-c1cc(N)n3nc(-c4cn(C)c5ccccc45)cc3n1)cn2C,1.64 µM,3.19 µM
CC(=O)Oc1ccccc1C(=O)[Se]C(=NC(C)C)NC(C)C,0.575 µM,1.98 µM
O=C1N/C(=N\c2nccs2)S/C1=C\c1ccc([N+](=O)[O-])cc1,9.69 µM,81.7 µM
